Whole data set: some 33,000 sequences, median “E-score (-0.5 to 0.5)” near -0.01, cut for the highest 2% near 0.26. This is one part of the list.
Each sequence was assayed against Ste12 (UniProt P13574) (assay: PBM E-score (8-mer binding enrichment) (E-score (-0.5 to 0.5)); higher = stronger / more preferred TF binding; most listed sequences are background and not binding sites). Settings: protein concentration: 200 nM; construct: GST-DNA-binding domain.
Method in brief: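 Universal all-10-mer Agilent arrays, fresh or stripped once, were converted to double-stranded form by primer extension. GST-tagged yeast transcription factors from PURExpress in vitro transcription/translation, full-length or DNA-binding domain only, were applied at about 100-200 nM and detected with fluorescent anti-GST. After masliner normalisation, the Universal PBM Analysis Suite scored each ungapped eight-base word together with its reverse complement by E-score.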

Row | Sequence | PBM E-score
1 | AAGTAAGG | 0.0451
2 | AAAGCATC | 0.0596
3 | TACTCGAA | 0.0179
4 | CCTGCATA | -0.143
5 | CCCAGTAC | -0.237
6 | AGGACTTA | -0.242
7 | AATGGGTA | 0.076
8 | GCCCCTCC | 0.445
9 | CGCGGATC | -0.0673
10 | CGCACAGC | -0.165
11 | AACGGTAT | -0.0208
12 | CGAGTGAC | -0.00135
13 | CCCGCGTC | 0.119
14 | GAGTAGCC | -0.0669
15 | TCCTTTAA | 0.0668
16 | GTGTCGCA | 0.087
17 | GGGAGACA | -0.131
18 | AATGTGCC | -0.152
19 | GCGTTACC | -0.13
20 | CCGCGAGC | -0.133
21 | CACCAGTC | -0.222
22 | ATCGTAGG | -0.0943
23 | GCGACACA | 0.0605
24 | AGATTGCA | 0.0114
25 | CGTAGATA | -0.122

Row | Sequence | PBM E-score
26 | CCGGGCAA | -0.0289
27 | ATATAATG | -0.0272
28 | ACTGTGGG | -0.0905
29 | CCCCGCTA | 0.135
30 | GGTCGTTA | -0.0562
31 | GGGTAGCA | -0.0648
32 | TCACCAGA | -0.0558
33 | CCTAACCA | 0.2
34 | AGAGACCG | -0.184
35 | GCCCAATA | -0.00934
36 | ATTGTCAC | 0.086
37 | TACAATAA | -0.0434
38 | GGGACGAC | -0.248
39 | AGCGACGA | -0.148
40 | TACCATAA | 0.175
41 | GTGCCACA | -0.304
42 | ATGTTGCA | 0.00732
43 | AAAGGTCA | 0.0359
44 | AAGAGCGC | -0.00431
45 | ACCCCCGG | -0.146
46 | GGAACACA | -0.0414
47 | ACTATCCC | -0.15
48 | CGGGTAAG | -0.135
49 | CGTTAAAA | -0.00084
50 | CTTGGAGC | -0.236

Row | Sequence | PBM E-score
51 | GCACCTCC | 0.0167
52 | CATGGAGC | -0.0519
53 | GCCGTATA | 0.168
54 | AAAGCGGA | 0.0831
55 | CATCCGAA | 0.117
56 | CGGCCGTC | -0.175
57 | CACTGCCC | -0.185
58 | AGGCGGCG | -0.00081
59 | ACTATTCG | -0.0254
60 | CTGACATA | 0.0958
61 | CGGCACTA | 0.0668
62 | AAATCTTA | 0.218
63 | CTTTCGTC | 0.00288
64 | CCAAGAAG | -0.0885
65 | CCGCATAA | 0.22
66 | CGATTCGC | 0.0897
67 | GCCGACGA | 0.17
68 | ACGTAGAC | -0.231
69 | CGAACTAC | -0.0296
70 | ACTATAAC | -0.0368
71 | CTGAGAGC | -0.214
72 | AGAGGTCC | 0.0463
73 | ACAGTAGC | -0.145
74 | GATTGCAA | 0.143
75 | AGATGCGC | -0.106

Row | Sequence | PBM E-score
76 | CCCGGTAG | -0.103
77 | CTCATCCA | 0.0168
78 | TTGGGAAA | 0.231
79 | ATCTTACA | 0.00715
80 | CGTAAAGC | -0.0333
81 | TAATATCA | 0.181
82 | AGAAAAGC | 0.127
83 | GACGAGAA | 0.0115
84 | GGCGCACA | 0.0457
85 | AGGACACT | -0.173
86 | TACTAGGA | 0.131
87 | CCAATCGG | 0.0393
88 | ACCGAGCC | 0.00701
89 | ACCCAATC | 0.0585
90 | AGAACCAA | 0.0474
91 | AGGATTGA | 0.0179
92 | CTGGGCGC | -0.00387
93 | AGCAATCG | -0.00294
94 | CAATTGGG | -0.0554
95 | GACTGGCA | 0.0106
96 | GAGTGATA | 0.0321
97 | AACGCCAA | 0.146
98 | AGAAGGAG | -0.115
99 | ATGGCCGG | -0.0835
100 | CCCGCTCA | 0.105

Row | Sequence | PBM E-score
101 | ATGTGGCC | -0.142
102 | AGTGTGGC | 0.00736
103 | GGAACCCA | -0.0382
104 | CATTCCAG | -0.177
105 | ATCTTGTC | 0.042
106 | CCTTCGCG | 0.028
107 | CGCATGGA | -0.189
108 | CATTATGG | 0.0151
109 | CTCTCTGA | -0.104
110 | CTAACCGA | -0.00732
111 | CATTGTTA | 0.124
112 | TACCACGA | -0.0329
113 | CGAAGCTC | -0.115
114 | GGACTCGA | 0.0506
115 | ATACGGTC | -0.0962
116 | ATTGCGCA | -0.0424
117 | ATTGGTTC | 0.176
118 | CGACACAC | -0.00212
119 | AGACAGAG | -0.0113
120 | ATGCAGCC | -0.0138
121 | CGGAATGA | 0.078
122 | AAGCGAGG | 0.0113
123 | CAAAACCG | 0.0137
124 | GATCGAGA | 0.092
125 | AGGCGCAG | -0.121

Row | Sequence | PBM E-score
126 | GATATATA | 0.246
127 | CGCTATGC | -0.163
128 | TGCTCTAA | -0.148
129 | ACTACTTC | -0.0884
130 | CAGTCTAC | -0.259
131 | CGGCAACC | 0.0387
132 | AGGGAAAT | -0.107
133 | CCTTCATC | -0.0404
134 | GGTATAAA | 0.126
135 | GAATGCTA | -0.108
136 | GACCGCTA | -0.0916
137 | TAACATAA | 0.275
138 | GCCATTCC | -0.221
139 | ATTCTGTG | 0.0752
140 | GGCTTCTA | -0.0179
141 | ACACCACC | -0.046
142 | CGATTAGA | -0.074
143 | GGTACCTA | -0.213
144 | AGACTAGG | -0.136
145 | ATCTTAGG | 0.007
146 | AACCTCGT | -0.0276
147 | ATCAGATA | 0.0702
148 | CGGATAGA | 0.144
149 | CCCACAGA | -0.0144
150 | GTGGTGGA | -0.00239

Row | Sequence | PBM E-score
151 | GACTAAAC | 0.00709
152 | TCTATACA | -0.0534
153 | CAAGCGTG | -0.128
154 | AATCCGAC | -0.0163
155 | CGTACTAA | -0.0054
156 | AGTGGGCG | -0.105
157 | GAAAGATA | 0.148
158 | GGTGGCCA | -0.111
159 | CGCTCCGA | 0.127
160 | ACAATGGA | 0.107
161 | ACGCTTCC | -0.107
162 | CGACTGAA | 0.148
163 | CTGTACTC | -0.247
164 | ACCCCCCA | -0.218
165 | GCTCATAA | 0.0263
166 | ATCAGGTC | -0.0413
167 | AATAATCG | 0.145
168 | AGTGTCCC | -0.0708
169 | GATGGGTA | -0.0514
170 | AAAGTGGC | -0.0173
171 | AAACATGA | 0.321
172 | TCTCTTAA | 0.0542

From the supplement of paper PMC3334620
